{"source": "PubChem BioAssay AID485344", "about": "(National Center for Advancing Translational Sciences (NCATS), 2010)", "note": "Several values for one entry are separate records, joined by “and”; a condition that tells them apart may be missing. Equal values may be shown once. The campaign covered roughly 340,000 compounds. About 6,900 (2%) were called active. Cut-off read from the data, not from the text of the source: active = inhibition above about 30%; inactive = below that, where a call was filed. Only a part is listed here, and it is no random draw. The source gives no active or inactive call for entries shown without one."}
{"target": "D(2) dopamine receptor (Homo sapiens) (UniProt P14416)", "sequence (P14416 whole entry, looked up)": "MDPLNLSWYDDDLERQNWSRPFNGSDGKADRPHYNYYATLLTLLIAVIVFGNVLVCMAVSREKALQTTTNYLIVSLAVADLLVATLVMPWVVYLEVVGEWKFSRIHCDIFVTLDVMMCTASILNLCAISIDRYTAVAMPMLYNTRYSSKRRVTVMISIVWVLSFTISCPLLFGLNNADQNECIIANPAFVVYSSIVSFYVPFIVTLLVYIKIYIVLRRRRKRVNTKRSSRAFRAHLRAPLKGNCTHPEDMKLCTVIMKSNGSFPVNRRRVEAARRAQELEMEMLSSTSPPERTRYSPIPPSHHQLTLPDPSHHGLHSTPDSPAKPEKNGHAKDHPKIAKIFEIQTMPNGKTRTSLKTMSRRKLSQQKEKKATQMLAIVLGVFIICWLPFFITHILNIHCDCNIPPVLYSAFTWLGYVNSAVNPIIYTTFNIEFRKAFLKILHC", "test": "HTS Assay for Allosteric Antagonists of the Human D2 Dopamine Receptor: Primary Screen for Antagonists; note: 0% is about no effect", "conditions": "HEK293 TREx D2 cells, calcium flux, dopamine EC80; at 10 µM; stronger effect = higher value", "outline": "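Read-out: kinetic calcium fluorescence (1 cycle/s) in inducible HEK293 T-REx D2 cells after an EC80 dopamine addition that followed 180 s compound preincubation. Loss of the dopamine response indicates antagonism.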"}
{"smiles": "CCOC(=O)c1cc(S(=O)(=O)Nc2ccc(OC)c(Cl)c2)[nH]n1", "inhibition": "-0.96%"}
{"smiles": "CN1C(=O)Cc2cc(S(=O)(=O)CCC(=O)Nc3cccc(C(F)(F)F)c3)ccc21", "inhibition": "12.8%"}
{"smiles": "CC(C)OCCCn1c(SCc2cccc(Br)c2)nc2c(sc3ccccc32)c1=O", "inhibition": "-8.03%"}
{"smiles": "CC(C)(C)C(=O)NC1CCN(C(=O)N2CCCC2)CC1", "inhibition": "active: 32.4%"}
{"smiles": "COc1ccc(CCn2cc3c(c2-c2ccccc2Br)c(=O)n(C)c(=O)n3C)cc1OC", "inhibition": "6.2%"}
{"smiles": "CCCc1noc(-c2ccc(N3CCCCC3)c([N+](=O)[O-])c2)n1", "inhibition": "-0.742%"}
{"smiles": "Cc1nc2c(cnn2-c2ccccc2Cl)c(=O)n1-c1ccc(C(C)C)cc1", "inhibition": "-1.08%"}
{"smiles": "CCc1ccc(S(=O)(=O)c2nnn3c2nc(NCCc2ccccc2)c2sccc23)cc1", "inhibition": "5.93%"}
{"smiles": "COc1cc(NC(=O)Cn2ncc3c(=O)oc4ccccc4c32)cc(OC)c1OC", "inhibition": "11.9%"}
{"smiles": "COc1cccc(-c2nc(SCC(=O)Nc3ccc4c(c3)OCO4)c(-c3ccccc3)[nH]2)c1", "inhibition": "-16.2%"}
{"smiles": "CN(C)S(=O)(=O)N(CC(=O)NCCSCc1ccccc1Cl)c1ccccc1", "inhibition": "12%"}
{"smiles": "Cc1ccc(-c2onc(C)c2C)cc1S(=O)(=O)N1CCCCC1", "inhibition": "2.08%"}
{"smiles": "CCOC(=O)c1sc2ccccc2c1S(=O)(=O)Nc1c(C)cccc1C", "inhibition": "2.95%"}
{"smiles": "O=C(Cn1c(=O)n(-c2ccc(F)cc2)c(=O)c2sc3ccccc3c21)N1CCCC1", "inhibition": "14.6%"}
{"smiles": "CCOC(=O)c1c(N)n(-c2ccc(C)c(C)c2)c2nc3ccccc3nc12", "inhibition": "6.69%"}
{"smiles": "COc1cc(CNC(=O)c2cc(-c3ccccc3)n[nH]2)cc(OC)c1OC", "inhibition": "2.07%"}
{"smiles": "Cc1ccccc1NC(=O)CSc1nc(-c2ccc(F)cc2)c2cccc(C)c2n1", "inhibition": "1.99%"}
{"smiles": "COc1ccc(-n2nc(C(=O)N3CCC(C)CC3)c3c4ccccc4n(C)c3c2=O)cc1Cl", "inhibition": "-0.386%"}
{"smiles": "COc1cccc(CNC(=O)Cn2cc3c(n2)-c2c(oc(C(=O)N4CCCC4)c2C)CC3)c1OC", "inhibition": "4.1%"}
{"smiles": "CCc1nn(CC(=O)NCCc2ccc(OC)cc2OC)c(=O)c2cc3sccc3n12", "inhibition": "-5.64%"}
{"smiles": "COc1ccc(-c2noc(-c3ccc(NCc4ccc(C)cc4)c([N+](=O)[O-])c3)n2)cc1OC", "inhibition": "21%"}
{"smiles": "Cn1c(=O)c2c(nc(SCC(=O)Nc3ccc(OC(F)(F)F)cc3)n2Cc2cccc(C(F)(F)F)c2)n(C)c1=O", "inhibition": "5.3%"}
{"smiles": "Cc1ccc(S(=O)(=O)Nc2cc3c(cc2C)n(C)c(=O)c(=O)n3C)cc1", "inhibition": "-5.51%"}
{"smiles": "Cc1ccc(CN2CCN(/N=C/c3cccs3)CC2)cc1", "inhibition": "active: 33.8%"}
{"smiles": "CCOc1ccc(-c2oc3ccccc3c(=O)c2O)cc1OCC", "inhibition": "4.87%"}
{"smiles": "CCCS(=O)(=O)c1ncc(Cl)c(C(=O)N(Cc2ccccc2)Cc2ccco2)n1", "inhibition": "20.9%"}
{"smiles": "Cc1ccsc1/C=N/NC(=O)c1ccc2ccccc2c1", "inhibition": "active: 41.4%"}
{"smiles": "COc1ccccc1NC(=O)N1CC(=O)Nc2sc3c(c2C1c1ccccc1)CCCC3", "note": "(configuration not stated)", "inhibition": "11.2%"}
{"smiles": "O=C(Nc1ccc(S(=O)(=O)Nc2ccccc2)cc1)N1CCCC1", "inhibition": "-17.6%"}
{"smiles": "CC1(C)Nc2ccc(O)cc2-c2c1ssc2=S", "inhibition": "active: 35.8%"}
{"smiles": "COc1ccccc1NC(=O)C1=C(C)Nc2c(C(=O)Nc3ccc(F)cc3)cnn2C1c1ccc(Cl)cc1", "note": "(configuration not stated)", "inhibition": "7.65%"}
{"smiles": "O=C(NCc1ccc2c(c1)CCN2C(=O)c1ccc(F)cc1)c1ccc(Br)o1", "inhibition": "-22.7%"}
{"smiles": "COCCCN1C(=O)N(c2ccccc2)C(=O)C1CC(=O)Nc1ccc(F)cc1", "note": "(configuration not stated)", "inhibition": "15%"}
{"smiles": "COc1cc(OC)cc(C(=O)Nc2cc3nn(-c4ccccc4)nc3cc2Cl)c1", "inhibition": "1.88%"}
{"smiles": "Cc1ccccc1CSc1cn(CCNC(=O)c2cccs2)c2ccccc12", "inhibition": "-6.84%"}
{"smiles": "COC(=O)c1ccc(C2Nc3c(C)cc(C)cc3C3C=CCC32)cc1", "note": "(configuration not stated)", "inhibition": "-2.44%"}
{"smiles": "CCC(O)c1nc2ccccc2n1Cc1cccc(Cl)c1", "note": "(configuration not stated)", "inhibition": "-4.17%"}
{"smiles": "Nc1nonc1-n1nnc(C(=O)N/N=C/c2ccc(Br)cc2)c1-c1ccc2c(c1)OCO2", "inhibition": "active: 41.3%"}
{"smiles": "CCOC(=O)Cc1ccc(NC(=O)n2ncc3c(C)cccc32)cc1", "inhibition": "5.55%"}
{"smiles": "CCOC(=O)c1c(C)oc2nc(C)nc(Nc3cccc(OC)c3)c12", "inhibition": "12.6%"}
{"smiles": "COc1ccc(OC)c(NC(=O)c2cc(-c3ccc(C)cc3O)n[nH]2)c1", "inhibition": "active: 32.2%"}
{"smiles": "COc1cc(C(=O)O/N=C2\\C=CC(=O)C=C2C)cc(OC)c1OC", "inhibition": "active: 49.8%"}
{"smiles": "CCOc1ccc(CC(=O)Nc2c(C(=O)c3ccc(F)cc3)oc3ccccc23)cc1OCC", "inhibition": "-8.22%"}
{"smiles": "COc1cccc(CNC(=O)CCc2nnc3n(C)c(=O)c4sccc4n23)c1", "inhibition": "-9.12%"}
{"smiles": "CCCN(CCC)CCCNC(=O)C1CCC(CNS(=O)(=O)c2ccc(NC(C)=O)cc2)CC1", "note": "(configuration not stated)", "inhibition": "-0.362%"}
{"smiles": "COc1ccc(NC(=O)Cn2c(CCC(=O)O)ccc2-c2ccccc2)cc1Cl", "inhibition": "-8.17%"}
{"smiles": "CC(=O)Nc1ccc(NC(=O)CC2Sc3ccccc3NC2=O)cc1", "note": "(configuration not stated)", "inhibition": "-5.78%"}
{"smiles": "Cc1ccc(Cl)cc1N1CCN(C(=O)c2cc(S(=O)(=O)N3CCC(C)CC3)cn2C)CC1", "inhibition": "19%"}
{"smiles": "CCOc1ccc(CNC(=O)C2CCN(S(=O)(=O)c3c(C)noc3/C=C/c3ccc(C)cc3)CC2)cc1OC", "inhibition": "3.23%"}
{"smiles": "O=C(CCN1CCC(c2ccccc2)C1)c1ccc2c(c1)OCCO2", "note": "(configuration not stated)", "inhibition": "active: 86.7%"}
{"smiles": "COc1ccc(NC(=O)CSc2nc3nc(C)cc(C)n3n2)cc1", "inhibition": "-2.92%"}
{"smiles": "Cc1c(CNCc2ccc(Cl)cc2)c(C(=O)O)c(C)n1Cc1ccc(F)cc1", "inhibition": "-4.6%"}
{"smiles": "CCOc1ccc(CNS(=O)(=O)c2ccc3[nH]c4c(c3c2)CCCC4)cc1OC", "inhibition": "-0.392%"}
{"smiles": "COc1ccc2oc(=O)cc(CN3CCN(C(=O)c4ccccc4F)CC3)c2c1", "inhibition": "7.13%"}
{"smiles": "Cc1ccc(C(C)(C)C)c(OCCCCN2CCCC2)c1", "inhibition": "active: 31%"}
{"smiles": "Cc1[nH]c2ccccc2c1C(=O)CN1CCN(C/C=C/c2ccccc2)CC1", "inhibition": "active: 80.3%"}
{"smiles": "COc1ccc(CNC(=O)Cn2ccc3cc(S(=O)(=O)N4CCCCCC4)ccc32)cc1OC", "inhibition": "6.19%"}
{"smiles": "COc1cccc(-c2cn3c(n2)sc2cc(C(=O)NCc4cccs4)ccc23)c1", "inhibition": "-3.25%"}
{"smiles": "CCOCCCNC(=O)C(c1ccc(OC)cc1)N(Cc1cccs1)C(=O)c1ccc(NC(C)=O)cc1", "note": "(configuration not stated)", "inhibition": "-2.32%"}
{"smiles": "Oc1cccc(C(Nc2ccccn2)c2ccc3cccnc3c2O)c1Cl", "note": "(configuration not stated)", "inhibition": "1.22%"}
{"smiles": "Fc1cccc(-c2nc(-c3ccncc3)no2)c1", "inhibition": "4.6%"}
{"smiles": "Cc1ccc(C(=O)c2oc3ccccc3c2NC(=O)c2cc(=O)c3ccccc3o2)cc1", "inhibition": "2.63%"}
{"smiles": "Cc1ccc(C)c(Cn2c(=O)c3c(nc4n3CCN4c3ccc(F)cc3)n(C)c2=O)c1", "inhibition": "1.7%"}
{"smiles": "CCOC(=O)c1c(C)[nH]c(CCC(=O)NCCCN2CCN(c3cccc(Cl)c3)CC2)c1C", "inhibition": "-12.7%"}
{"smiles": "CCOc1ccc(-n2c(Cc3ccccc3)nnc2SCc2nc(-c3ccccc3C)no2)cc1", "inhibition": "8.88%"}
{"smiles": "CCOc1ccc2ccccc2c1/C=N\\NC(=O)c1ccc([N+](=O)[O-])cc1", "inhibition": "active: 39.5%"}
{"smiles": "CC(=O)NCCNC(=O)CCCc1nnc2n(CCC(C)C)c(=O)c3sccc3n12", "inhibition": "2.4%"}
{"smiles": "Cc1ccc(NC(=O)C(=O)NCC(c2cccnc2)N2CCOCC2)cc1C", "note": "(configuration not stated)", "inhibition": "-12.7%"}
{"smiles": "CCc1ccc(OC(=O)CSc2nnc(-c3ccc4c(c3)OCO4)o2)cc1", "inhibition": "-9.94%"}
{"smiles": "O=C(NC1CCCC1)c1c[nH]c2ccc(S(=O)(=O)Nc3cccc(C(F)(F)F)c3)cc2c1=O", "inhibition": "7.25%"}
{"smiles": "CC(=O)OCC#CCSc1nnc(-c2cccc(Br)c2)o1", "inhibition": "3.65%"}
{"smiles": "CCOC(=O)c1c(C)oc2nc(C)nc(NCC3CCN(Cc4ccc(Cl)cc4)CC3)c12", "inhibition": "-1.37%"}
{"smiles": "CCN(c1ccccc1)S(=O)(=O)c1nnc(NC(=O)COc2ccc(OC)cc2)s1", "inhibition": "9.16%"}
{"smiles": "COCCNC(=O)C1CCN(S(=O)(=O)c2ccc3c(c2)CCCN3C(C)=O)CC1", "inhibition": "11.1%"}
{"smiles": "CCOC(=O)c1[nH]c(C)c(CCC(=O)N2CCN(c3ccccc3)CC2)c1C", "inhibition": "-0.965%"}
{"smiles": "COc1ccc(-c2nc3n(n2)C(c2ccc(OC)cc2)C(C(=O)Nc2cccnc2)=C(C)N3)cc1", "note": "(configuration not stated)", "inhibition": "7.48%"}
{"smiles": "O=c1[nH]c(Nc2ccc3c(c2)OCCO3)nnc1Cc1ccccc1", "inhibition": "active: 48.6%"}
{"smiles": "CCOc1ccc(N2CC(c3nc(-c4cc(OC)c(OC)c(OC)c4)no3)CC2=O)cc1", "note": "(configuration not stated)", "inhibition": "3.21%"}
{"smiles": "CCOc1ccc(N(C)S(=O)(=O)c2ccc3c(c2)C(C)(C)C(=O)N3C)cc1", "inhibition": "-7.55%"}
{"smiles": "Cn1c(=O)oc2cc(S(=O)(=O)CCC(=O)NCc3ccccc3)ccc21", "inhibition": "2.33%"}
{"smiles": "Cc1ccc(C)c(NC(=O)C2CCCN(S(=O)(=O)c3c(C)noc3/C=C/N(C)C)C2)c1", "note": "(configuration not stated)", "inhibition": "-14.5% and active: 36.8%"}
{"smiles": "COc1ccc(CSc2nc3ncccc3[nH]2)cc1", "inhibition": "-5.2%"}
{"smiles": "Cc1ccc(-n2nnc3c(sc4nc(C)c(C)cc43)c2=O)cc1Cl", "inhibition": "11.9%"}
{"smiles": "COc1ccc(-c2c(C)[nH]n3c(=O)c(Cc4ccccc4)c(C)nc23)cc1", "inhibition": "active: 31.2%"}
{"smiles": "COc1ccc(Cl)cc1NC(=O)CCc1nc(-c2ccccc2F)no1", "inhibition": "-6.97%"}
{"smiles": "O=C(Cn1c(=O)n(Cc2ccc3c(c2)OCO3)c(=O)c2ccccc21)Nc1cccc(Cl)c1", "inhibition": "-2.08%"}
{"smiles": "Cc1c(C(=O)N2CCCC2)oc2c1-c1nn(CC(=O)NCc3cccc(Br)c3)cc1CC2", "inhibition": "-4.11%"}
{"smiles": "NS(=O)(=O)c1ccc(NC(=O)CCn2c(=O)oc3ccccc32)cc1", "inhibition": "15.4%"}
{"smiles": "O=C(C1CCC(CNS(=O)(=O)c2ccc(Br)s2)CC1)N1CCN(c2ccccc2)CC1", "note": "(configuration not stated)", "inhibition": "-8.74%"}
{"smiles": "Cc1nnc(SCc2cc(=O)n3c(C)cccc3n2)s1", "inhibition": "-23.1%"}
{"smiles": "COc1ccc(-n2ncc3c(N4CCN(c5cccc(C)c5)C(C)C4)ncnc32)cc1", "note": "(configuration not stated)", "inhibition": "5.07%"}
{"smiles": "Clc1cccc(CNc2ncnc3c2nc2n3CCCC2)c1", "inhibition": "-10.9%"}
{"smiles": "CCOc1ccc(Cn2c(=O)oc3ccccc32)cc1", "inhibition": "17.6%"}
{"smiles": "Cc1oc2c(C)c(O)ccc2c(=O)c1-c1ccc2ccccc2n1", "inhibition": "active: 43.9%"}
{"smiles": "Cc1ccc(-c2noc(COc3ccc(Br)c(C)c3)n2)cc1", "inhibition": "-12.7%"}
{"smiles": "O=C(CCN1CCN(c2ccccc2F)CC1)Nc1ccccc1F", "inhibition": "active: 86.4%"}
{"smiles": "O=C1CC(c2nc3ccccc3n2CCCCOc2ccccc2)CN1c1ccccc1Cl", "note": "(configuration not stated)", "inhibition": "-4.49%"}
